From PubChem BioAssay AID1948 (National Center for Advancing Translational Sciences (NCATS), 2009)
The whole screen tested about 110,000 compounds, of which about 20 (0.02%) were called active. This list was built around the results that the source calls inconclusive (neither active nor inactive); the mix of calls is not that of the screen. Calls follow the shape of the dose curve; as a rule, active = well fitted activation curve with a large enough effect; inconclusive = small, poorly fitted or top-dose-only effect; inactive = no such curve, though single readings can be large or run the other way. No potency is given beside an inconclusive call; the fits are too rough.
Potency is read from the fitted curve at half-maximal effect; tags tell the direction and shape of the fitted curve.

Experiment: qHTS Assay for Compounds that Induce Erasure of Genomic Imprints;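 as to activity change, positive = activation: 0% = negative control wells on the plate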
Conditions: mouse ES Peg3-LacZ reporter, beta-gal luminescence, 40 h; activity change, positive = activation: at 10.9 µM (top of the series) unless noted
How it was run: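 Imprint erasure is scored as LacZ activity from the silenced maternal Peg3 allele in feeder-free female ES cells cultured 40 h with LIF. Luminescence is normalized to in-plate negative controls and fitted to the Hill equation.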
With `CCn1c(C)nc2cc(C(=O)n3cc(C(=O)c4cc(F)ccc4O)cn3)ccc21` the Potency was inconclusive [activator, single point].
With `Cc1cccc(N(CC(=O)NCc2ccccc2)S(C)(=O)=O)c1C` the activity change, positive = activation was inconclusive: 36.9% [activator].
In the case of `COc1ccccc1-c1cc(C(=O)N2CCN(c3ccccc3)CC2)no1`, the activity change, positive = activation was inconclusive: 35.9% [activator].
In the case of `COc1ccc(-n2nnnc2SCC(=O)Nc2nnc(C)s2)cc1OC`, the Potency was inconclusive [activator, single point].
In the case of `CC1CN(C(c2cccs2)c2sc3ncnn3c2O)CC(C)O1` (stereo unspecified), the “activity change, positive = activation” value was inactive: -4.38% [at 60.7 µM].
With `Cc1cc2cc(OCC(=O)O)ccc2n1C` the Potency was inconclusive [activator, single point].
In the case of `CC(C)CCNC(=O)c1c[nH]c2ccc(S(=O)(=O)Nc3cccc(C(F)(F)F)c3)cc2c1=O`, the activity change, positive = activation was inconclusive: 33.5% [activator].
With `Cc1cc(-n2c(SCc3ccccc3F)nc3[nH]ncc3c2=O)ccc1Cl` the “activity change, positive = activation” value was inactive: -10.5%.
In the case of `c1ccc2c(c1)c1ccccc1n2Cn1c2ccccc2c2ccccc21`, the Potency was inconclusive [activator, single point].
For `CCc1nn2c(=O)cc(COC(=O)c3ccccc3NC(=O)COc3ccccc3C)nc2s1`, the “activity change, positive = activation” value was inactive: -27.2%.
With `Cc1ccc(C2CC(=O)Oc3cc(C)c(Cl)cc32)cc1` (stereo unspecified) the “activity change, positive = activation” value was inactive: -9.59% [at 60.7 µM].
For `CCC(=O)Nc1ccccc1N1CCN(S(C)(=O)=O)CC1`, the Potency was inconclusive [activator, single point].
With `Cc1ccc(NS(=O)(=O)c2cccc(C(=O)OCC(=O)NCc3ccco3)c2)cc1` the Potency was inconclusive [activator, single point].
In the case of `Cc1ccc(C2C=C(c3ccc4c(c3)OCO4)Nc3ncnn32)cc1` (stereo unspecified), the Potency was inconclusive [activator, single point].
For `O=C(CSc1ncc2c(n1)-c1ccccc1N(Cc1ccc(F)cc1)S2(=O)=O)c1ccc(Cl)cc1`, the “activity change, positive = activation” value was inactive: -8.39%.
In the case of `Cc1cccc(C(=O)N2CCc3cc(CNC(=O)CCc4ccccc4)ccc32)c1`, the activity change, positive = activation was inconclusive: 104% [activator].
In the case of `O=C(c1ccc2c(c1)CCCC2)N1CCN(c2nc3c(F)cccc3s2)CC1`, the activity change, positive = activation was inconclusive: 54.9% [activator].
For `Cc1nc2c(C(=O)NCCc3ccc(Cl)cc3)c[nH]n2c(=O)c1Cc1ccc(Cl)cc1`, the “activity change, positive = activation” value was inactive: -6.05%.
With `CN1CCN(c2ncc3nc(-c4ccccc4)c(=O)n(C)c3n2)CC1` the Potency was active: 10 µM.
For `CCOC(=O)c1ccc(NC(=O)N2CCOc3ccccc32)cc1`, the activity change, positive = activation was inconclusive: 53.8% [activator].
In the case of `CCCCC1CCC(C(=O)NC2CCS(=O)(=O)C2)CC1` (stereo unspecified), the Potency was inconclusive [activator, full curve, poor fit].
